Results from the supplement of paper PMC8728848.
Some of the results follow.

Columns and labels:
Experiment in all cases: glycan array binding signal (z-score within array); higher = stronger binding
Conditions in all cases: glycan notation: IUPAC condensed, linker removed
[1] = biological target: GlcNAc(b1-3)Gal(b1-4)GlcNAc(b1-3)Gal(b1-4)GlcNAc(b1-3)GalNAc
Method in brief: (§1)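 Glycan array data were curated from 3228 arrays in the Consortium for Functional Glycomics database and kept only where the protein sequence was available. Glycan names were converted to IUPAC-condensed notation, and columns mapping to the same glycan were averaged. The binding signal is a within-array Z-score, averaged across arrays of the same protein sequence at different concentrations or buffers and across linkers. Negative Z-scores can be read as non-binding.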

[2] = biological target: GlcNAc(b1-3)Gal(b1-4)GlcNAc(b1-3)GalNAc
Method in brief: as §1

[3] = biological target: GlcNAc(b1-3)Gal(b1-4)GlcNAc(b1-3)[GlcNAc(b1-3)Gal(b1-4)GlcNAc(b1-3)]GalNAc
Method in brief: as §1

[4] = biological target: GlcNAc(b1-3)Gal(b1-4)GlcNAc(b1-6)[Gal(b1-3)]GalNAc
Method in brief: as §1

[5] = biological target: GlcNAc(b1-3)Gal(b1-4)GlcNAc(b1-6)[GlcNAc(b1-3)Gal(b1-3)]GalNAc
Method in brief: as §1

[6] = biological target: GlcNAc(b1-3)Gal(b1-4)GlcNAc(b1-6)[GlcNAc(b1-3)]Gal(b1-4)GlcNAc
Method in brief: as §1

GlcNAc(b1-3)GalNAc = biological target: GlcNAc(b1-3)GalNAc
Method in brief: as §1

GlcNAc(b1-3)Man = biological target: GlcNAc(b1-3)Man
Method in brief: as §1

[7] = biological target: GlcNAc(b1-3)[GlcNAc(b1-4)][GlcNAc(b1-6)]GlcNAc
Method in brief: as §1

[8] = biological target: GlcNAc(b1-3)[GlcNAc(b1-6)]Gal(b1-4)GlcNAc
Method in brief: as §1

[9] = biological target: GlcNAc(b1-3)[GlcNAc(b1-6)]GalNAc
Method in brief: as §1

[10] = biological target: GlcNAc(b1-4)Gal(b1-4)GlcNAc
Method in brief: as §1

GlcNAc(b1-4)GlcNAc = biological target: GlcNAc(b1-4)GlcNAc
Method in brief: as §1

[11] = biological target: GlcNAc(b1-4)GlcNAc(b1-4)GlcNAc
Method in brief: as §1

[12] = biological target: GlcNAc(b1-4)GlcNAc(b1-4)GlcNAc(b1-4)GlcNAc(b1-4)GlcNAc
Method in brief: as §1

[13] = biological target: GlcNAc(b1-4)GlcNAc(b1-4)GlcNAc(b1-4)GlcNAc(b1-4)GlcNAc(b1-4)GlcNAc
Method in brief: as §1

[14] = biological target: GlcNAc(b1-4)[GlcNAc(b1-6)]GalNAc
Method in brief: as §1

[15] = biological target: GlcNAc(b1-6)Gal(b1-4)GlcNAc
Method in brief: as §1

GlcNAc(b1-6)GalNAc = biological target: GlcNAc(b1-6)GalNAc
Method in brief: as §1

[16] = biological target: GlcNAc6S(b1-3)Gal(b1-4)GlcNAc
Method in brief: as §1

Kdn(a2-3)Gal(b1-3)GalNAc = biological target: Kdn(a2-3)Gal(b1-3)GalNAc
Method in brief: as §1

Kdn(a2-3)Gal(b1-3)GlcNAc = biological target: Kdn(a2-3)Gal(b1-3)GlcNAc
Method in brief: as §1

Kdn(a2-3)Gal(b1-4)Glc = biological target: Kdn(a2-3)Gal(b1-4)Glc
Method in brief: as §1

Kdn(a2-3)Gal(b1-4)GlcNAc = biological target: Kdn(a2-3)Gal(b1-4)GlcNAc
Method in brief: as §1

[17] = biological target: Kdn(a2-3)Gal(b1-4)[Fuc(a1-3)]GlcNAc
Method in brief: as §1

Kdn(a2-6)Gal(b1-4)GlcNAc = biological target: Kdn(a2-6)Gal(b1-4)GlcNAc
Method in brief: as §1

[18] = biological target: Man(a1-2)Man(a1-2)Man(a1-3)Man
Method in brief: as §1

[19] = biological target: Man(a1-2)Man(a1-2)Man(a1-6)[Man(a1-3)]Man
Method in brief: as §1

Man(a1-2)Man(a1-3)Man = biological target: Man(a1-2)Man(a1-3)Man
Method in brief: as §1

[20] = biological target: Man(a1-2)Man(a1-3)[Man(a1-2)Man(a1-6)]Man
Method in brief: as §1

[21] = biological target: Man(a1-2)Man(a1-3)[Man(a1-2)Man(a1-6)]Man(a1-6)[Man(a1-2)Man(a1-2)Man(a1-3)]Man
Method in brief: as §1

[22] = biological target: Man(a1-2)Man(a1-3)[Man(a1-2)Man(a1-6)]Man(a1-6)[Man(a1-2)Man(a1-2)Man(a1-3)]Man(b1-4)GlcNAc(b1-4)GlcNAc
Method in brief: as §1

[23] = biological target: Man(a1-2)Man(a1-3)[Man(a1-6)]Man(a1-6)[Man(a1-2)Man(a1-3)]Man(b1-4)GlcNAc(b1-4)GlcNAc
Method in brief: as §1

[24] = biological target: Man(a1-2)Man(a1-6)[Man(a1-3)]Man(a1-6)[Man(a1-2)Man(a1-2)Man(a1-3)]Man
Method in brief: as §1

[25] = biological target: Man(a1-2)Man(a1-6)[Man(a1-3)]Man(a1-6)[Man(a1-2)Man(a1-2)Man(a1-3)]Man(b1-4)GlcNAc(b1-4)GlcNAc
Method in brief: as §1

Man(a1-3)[Man(a1-6)]Man = biological target: Man(a1-3)[Man(a1-6)]Man
Method in brief: as §1

[26] = biological target: Man(a1-3)[Man(a1-6)]Man(a1-6)[Man(a1-2)Man(a1-3)]Man(b1-4)GlcNAc(b1-4)GlcNAc
Method in brief: as §1

B1: Epa13 (Candida glabrata) (protein)
chain: MGSSHHHHHHSSGLVPRGSHMASDSSENGYAHGCSPSIRAKLKPGLSMEIYSYALRPTDDHCWDSAYLDPMFPRTGYLTHKLLGKAEGIIGPLNFLAKNPACIPAVSTLPLAFHFPKPFTITNFTMLLYGYLSPKKTGKYTFKLLADDLLLMNFGADNAFDCCSHDATKDNIGEYVAYSVWPGVNKNVTVYLESGIYYPLRLFFNNRDAIAQLDFAYYFNDSPIRQTDFSGMFFSIPDSVKCPANI
In the case of B1, the “glycan array binding signal (z-score)” value [1] is reported as -0.275, the “glycan array binding signal (z-score)” value [2] is reported as -0.134 and the “glycan array binding signal (z-score)” value [3] is reported as 0.07. The “glycan array binding signal (z-score)” value [4] was -0.08, the “glycan array binding signal (z-score)” value [5] was 0.106 and the “glycan array binding signal (z-score)” value [6] was -0.3. The “glycan array binding signal (z-score)” value (GlcNAc(b1-3)GalNAc) was -0.291, the “glycan array binding signal (z-score)” value (GlcNAc(b1-3)Man) was -0.27 and the “glycan array binding signal (z-score)” value [7] was -0.177. For the same binder, the “glycan array binding signal (z-score)” value [8] was -0.346, the “glycan array binding signal (z-score)” value [9] was -0.52 and the “glycan array binding signal (z-score)” value [10] was -0.349. For the same binder, the “glycan array binding signal (z-score)” value (GlcNAc(b1-4)GlcNAc) was 0.063, the “glycan array binding signal (z-score)” value [11] was -0.335 and the “glycan array binding signal (z-score)” value [12] was -0.06. For the same binder, the “glycan array binding signal (z-score)” value [13] was -0.051, the “glycan array binding signal (z-score)” value [14] was -0.416 and the “glycan array binding signal (z-score)” value [15] was -0.342. The “glycan array binding signal (z-score)” value (GlcNAc(b1-6)GalNAc) was -0.317, the “glycan array binding signal (z-score)” value [16] was 0.032 and the “glycan array binding signal (z-score)” value (Kdn(a2-3)Gal(b1-3)GalNAc) was 0.239. For the same binder, the “glycan array binding signal (z-score)” value (Kdn(a2-3)Gal(b1-3)GlcNAc) was -0.544, the “glycan array binding signal (z-score)” value (Kdn(a2-3)Gal(b1-4)Glc) was -0.266 and the “glycan array binding signal (z-score)” value (Kdn(a2-3)Gal(b1-4)GlcNAc) was -0.455. For the same binder, the “glycan array binding signal (z-score)” value [17] was 0.184, the “glycan array binding signal (z-score)” value (Kdn(a2-6)Gal(b1-4)GlcNAc) was -0.44 and the “glycan array binding signal (z-score)” value [18] was -0.54. The “glycan array binding signal (z-score)” value [19] was 0.029, the “glycan array binding signal (z-score)” value (Man(a1-2)Man(a1-3)Man) was -0.531 and the “glycan array binding signal (z-score)” value [20] was -0.414. The “glycan array binding signal (z-score)” value [21] was -0.397, the “glycan array binding signal (z-score)” value [22] was -0.368 and the “glycan array binding signal (z-score)” value [23] was -0.409. The “glycan array binding signal (z-score)” value [24] was -0.424, the “glycan array binding signal (z-score)” value [25] was -0.149 and the “glycan array binding signal (z-score)” value (Man(a1-3)[Man(a1-6)]Man) was -0.564. For the same binder, the “glycan array binding signal (z-score)” value [26] was 0.284.
